Measured values: the supplement of paper PMC10126150
Values marked as one replicate rest on one cluster of the flow cell; about a third of the high ones do not repeat.

Tested on: ATP
Assay: switch fluorescence ratio, 500 uM ATP over buffer (Cy3 cluster intensity, sum of 5 cycles each) (fold (ratio)); higher = stronger signal-on switching upon ATP binding; sequences stand for … in TCGTCGGCAGCGTCAGATGTGTATAAGAGACAGTTTTTTTTTTTTTTTTTTTTTTTTT…TC
Details: aptamer strand: ATP DNA aptamer (quencher-CACCTGGGGGAGTATTGCGGAGGAAGG + anchor), 100 nM annealed; ATP concentration: 500 uM; one replicate
Summary of the method: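 Between each of five buffer/ATP cycles, the flow-cell was stripped with NaOH and re-annealed. Each cycle imaged Cy3-labelled switching-strand clusters, annealed to 100 nM quencher-labelled ATP aptamer on a modified Illumina MiSeq flow-cell, first in selection buffer and then after 15 min with 500 uM ATP at 22 °C. The fluorescence ratio is summed target-cycle over summed buffer-cycle Cy3 intensity per cluster, averaged per switch-domain sequence, with clusters outside 100-1000 RFU excluded.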
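Further: ATP exposure 15 min at 22 °C before imaging.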

| Sequence | switch fluorescence ratio |
| --- | --- |
| GCACTCCAGC | 1.04 |
| GCGTATTTTC | 1.02 |
| ATAGTATGGC | 1.02 |
| GGAGTCAATT | 1.48 |
| GGCGTTTGTA | 1.01 |
| GATGTTGCAA | 1.03 |
| ATTGGGACGC | 1.13 |
| TTAGATAAA | 0.975 |
| TGCTGAAGGT | 0.95 |
| ACTTCACAGC | 1.44 |
| TATTCTTGTG | 1.03 |
| CCTACCTTTC | 1.26 |
| CCCCATAGGC | 1.15 |
| ATCAGCTCGA | 1.04 |
| AAACCCGTTC | 1.04 |
| GAAAGTAACG | 1.03 |
| GGCGCATGAA | 1.03 |
| CATATTGCGT | 1.02 |
| ACGGATTATC | 1.32 |
| GTGTGAATCG | 0.978 |
| TCACAGCGCC | 1.06 |
| AGGATAATTT | 1.01 |
| AAGGAGCACT | 1.03 |

| Sequence | switch fluorescence ratio |
| --- | --- |
| GTGGGGAGAC | 1.03 |
| ATTGTTAT | 1 |
| AAGGTCTAGG | 1 |
| AGCGCATAT | 1.36 |
| CGAGTAAATT | 0.998 |
| TGACTAAGCA | 1.03 |
| TGGAAAGAAA | 1.06 |
| TGGTGGTTCA | 0.998 |
| TTGAGGCAG | 0.994 |
| TGACTCTAAG | 0.995 |
| AGATTTCCGG | 1 |
| AGTCATATGA | 0.953 |
| TTGGGCCCCG | 1.02 |
| TGCTCTGAT | 1.01 |
| CAAAACGTGG | 0.981 |
| GTTTTAACTA | 1.02 |
| ACCTCACTCG | 1.5 |
| GTACGGGACT | 1.28 |
| CCTTGGTAG | 1 |
| ACACGGCTCC | 1.04 |
| AATGTCATTC | 1.01 |
| TTTTTTGG | 0.975 |
| TCGTAAAACT | 1.13 |

| Sequence | switch fluorescence ratio |
| --- | --- |
| CGCCCTTCGT | 1.09 |
| ACATGCATGC | 0.993 |
| GAGGCACAGG | 1.32 |
| CACGATTGCA | 1.01 |
| GAGAGTCAGT | 1.05 |
| CGGGTGGTAG | 0.934 |
| CAGCTTGTTG | 0.967 |
| AATCGTTCGT | 1.03 |
| TACAGGGGT | 1.13 |
| CGTGAATT | 0.942 |
| ATATTCACTT | 1 |
| GCTACCAGCA | 1.02 |
| TTTGGGGG | 0.95 |
| GCGGTTTACG | 1 |
| GCGGGCCAGG | 1.17 |
| TAAGGGACCT | 0.994 |
| CAGCTGGGTA | 0.989 |
| TACGTCTATA | 0.988 |
| TCGGGCCTG | 0.99 |
| CCCATGTGGT | 1.08 |
| TTTATCGTTA | 1.04 |
| CGGGCACGAC | 0.997 |
| TCAGGAGGAT | 0.968 |

| Sequence | switch fluorescence ratio |
| --- | --- |
| TAGGTCTTG | 0.973 |
| AGTGACATAC | 1.44 |
| AGAGGTTTGA | 0.982 |
| AACGGATGTG | 0.975 |
| TCGCAAGGGT | 1.76 |
| CTAGCCGTTT | 0.957 |
| TGGTTGAACT | 0.989 |
| ACGTCGGACT | 0.987 |
| GTATTGCTAA | 0.964 |
| CGCCGGGCCT | 1.04 |
| CCTTGGAATG | 0.993 |
| CTTCAGAGAA | 0.955 |
| AGGGCCCCTT | 0.924 |
| ACATAACATA | 1.13 |
| TTAAATTTTC | 0.965 |
| GGTACTGGGC | 1.04 |
| TGCTACTACT | 1.09 |
| GGGATGCAA | 0.971 |
| CTCGTGCGCC | 1.06 |
| CCAGTCCGTG | 0.999 |
| CAGTAGAGGA | 1.06 |
| AAAGGGGAAT | 1.01 |
| CACCTATTCT | 1.02 |

| Sequence | switch fluorescence ratio |
| --- | --- |
| AGTTTCGGTG | 0.98 |
| ACGTCTGTCA | 0.998 |
| AATGAGGTCC | 0.948 |
| GCGCTTATTT | 0.981 |
| AATGTGGCTT | 1.08 |
| GTGTAAACAG | 1.02 |
| CGTGTTTGGT | 0.961 |
| ACCGGTCACA | 1.1 |
| CGTGAGTTGT | 1.02 |
| TCTATGCAAG | 1.07 |
| GATACTGAGT | 0.985 |
| CATCGTTTGG | 1.02 |
| TTAGAGCTTA | 1.16 |
| TTGTATTCTC | 0.977 |
| TTATTGGTCA | 1.02 |
| TTAGTCTAAT | 0.99 |
| GCCTTTTCAG | 0.963 |
| AATAGAAGAA | 0.988 |
| AGTAGCGAAT | 1.08 |
| TTCCGAGATT | 0.95 |
| TCCAGGGGCC | 1.14 |
| AAAGAGGATA | 1.01 |
| TGTACGGTC | 0.841 |

| Sequence | switch fluorescence ratio |
| --- | --- |
| AAATGTAGGG | 1 |
| CCAAACCGTG | 1.07 |
| ACGGTTTGCT | 1.16 |
| CTAGGATTTA | 0.991 |
| CTAAGTACGT | 1.19 |
| CCCCTGTTAA | 1.05 |
| GACAATTTGT | 0.974 |
| GCACTATTAC | 1.35 |
| CATAATCAAG | 0.995 |
| CGACGCGAAG | 2.76 |
| TGCAAAATGA | 0.977 |
| GGGATCCTAT | 0.983 |
| CTATGTAGAC | 1.15 |
| TCCACGGTGT | 2.1 |
| ATGGGGAACA | 1.02 |
| GACTTCATGT | 1.02 |
| AAAATAACAC | 1.08 |
| TGTCGTTGCT | 0.998 |
| GTCCCATACT | 1.28 |
| TTAGTATAGA | 0.997 |
| ATTTACGGGA | 1.08 |
| GCCACCACAT | 1.02 |
| CAGATCGGCA | 0.997 |

| Sequence | switch fluorescence ratio |
| --- | --- |
| TATTAAGGAA | 1.01 |
| CACTTTAACA | 1.08 |
| ACTTCAGAGG | 1.04 |
| TCCATGGTGT | 1.7 |
| GTCCGGGTCT | 1 |
| CGTCTCCCGT | 1.04 |
| CTGAGTATCT | 0.978 |
| GAACAATGCG | 1.05 |
| GAATTACTAA | 1.06 |
| AGGCGTATCC | 0.993 |
| TGGGCCCGTT | 1.01 |
| ATTTTTGCCA | 1.01 |
| AGAGGACTGT | 0.998 |
| GATACGGGAA | 1.06 |
| TGTAATGCA | 1.02 |
| TCACTAGGTT | 0.988 |
| TTCCAGTGGT | 1.05 |
| CAGCACCGGG | 1.07 |
| ATGAGCCATC | 1.01 |
